# In ChEMBL document CHEMBL4888484, “Replenishing the malaria drug discovery pipeline: Screening and hit evaluation of the MMV Hit Generation Library 1 (HGL1) against asexual blood stage Plasmodium falciparum ,using a nano luciferase reporter read-out” (2022):
# About 540 (0.36%) of roughly 150,000 compounds showed an effect of 50% or more. Some of the results follow.
# Test system: Plasmodium falciparum
# Assay: Primary screen in NF54 nanoGlo assay, in single point, at 2uM, 72h; a lower Z score goes with more inhibition
# Format: functional, Erythrocyte
# Settings: timepoint 72 hour
Compound,% Inhibition [%],Z score
Cc1ccsc1C(=O)N[C@@H](CNC(=O)OC(C)(C)C)C1CC1,9,-0.87
Cn1cccc1CN1CCCCCNC(=O)[C@@H]2CCC[C@@H]21,-8,1.09
CC(C)(CNC(=O)C1(O)CCOCC1)c1c(Cl)cccc1Cl,-5,0.44
CCN(CC)S(=O)(=O)N(C)Cc1ccc(OC)cc1OC,-13,1.76
COc1ccc(C)cc1CNc1ccccc1N1CCCCC1,-7,0.74
CCC1(CC)CN([C@H]2CCC(=O)N(CC3CC3)CC2)CCO1,0,-0.04
O=C(N[C@H]1CCN(Cc2ccsc2)C1)c1cc2ccccc2[nH]1,-4,0.62
O=C(NCC1(O)CCOCC1)c1cnn(-c2ccc(F)cc2F)c1,-9,1.2
O=S1(=O)CCC[C@H](c2nc(-c3nccc4ccccc34)no2)C1,-6,1.07
COc1ccc(NC(C)=O)cc1NC(=O)c1cccc2ccsc12,-11,1
Cc1ccccc1-n1c(=O)n(C[C@H]2CCCO2)c(=O)c2c1ncn2Cc1cccc(F)c1,-13,1.27
O=C(Nc1ccc2c(n1)CCC2)N1CC(O)CC1c1ccccc1 (stereo not given),-1,0.17
CCc1ccc(S(=O)(=O)N2C[C@H](C)NC(=O)c3ccc(F)cc32)cc1,-5,0.65
CCOc1cc(-c2nnc(NC(=O)c3ccc4c(c3)OCCO4)o2)cc(OCC)c1OCC,4,-0.57
COc1cc(OC)c(OC)cc1CN1CCC2(CC1)C[C@@H]2C(=O)N1CCCN(C)CC1,-9,1.23
CC[C@H]1CN(C)CCCN1C(=O)c1cccc(C(=O)O)c1,-8,1.04
CCN(C)c1nc(-c2ccc(F)cc2)ncc1C(=O)N1CCCCC1,1,-0.11
CCc1nc(NC[C@H]2CN(CC3CCN(CC4CC4)CC3)C(=O)CO2)ncc1C,-9,1.72
Cc1cc(C)n(CCC(=O)N2C[C@@H]3CC[C@H]2CN(Cc2[nH]cnc2C)C3)n1,2,-0.37
Cc1ccc(CN2CCN(Cc3ccon3)C[C@@H]2CCO)o1,-4,0.71
CN(c1ccccc1)c1ccccc1C(=O)NCCCN1CCOCC1,-3,0.28
CCC[C@H](NC1CCN(C(=O)OC)CC1)C1CC1,7,-0.96

Compound,% Inhibition [%],Z score
C[C@@H]1C(=O)N(c2nn(C)c3ccccc23)C(=O)N1C,0,-0.04
O=C(c1ccc2ccccc2n1)N1CC[C@H](c2nc(CCOCC3CC3)no2)C1,-14,1.89
CCc1nc(C)cc(N2CCC3(CCOCC3)C2)n1,0,-0.05
Cc1cc(Br)cc(C(=O)NCCc2ccn(C)n2)c1,-11,1.74
N#Cc1cnc(N2CCC(CNC(=O)c3ccn(C(F)F)n3)CC2)nc1N,-10,2.08
COCCN1CCC[C@@]2(CCN(C(=O)c3ccccc3)C2)C1,-9,1.37
Cc1ccc(N2C(=O)N(Cc3ccc(F)cc3)S(=O)(=O)c3cccnc32)cc1,-13,1.3
CN1C(=O)CC[C@]2(CNC(=O)Cc3ccccc3)CCC=C12,-12,1.72
COC(=O)c1cn(Nc2nc(C)cc(C)n2)cc2c(O)nnc1-2,6,-0.76
C[C@H]1CCCN(c2ccc(C(N)=O)cc2NC(=O)CCn2cnnn2)C1,-3,0.34
CCO[C@@H](C)c1nc(-c2cc(C)cc(C)n2)no1,0,0.01
CCc1nnc(Cn2cc(C(C)=O)c(=O)n(C)c2=O)n1C,-2,0.26
CC(=O)N1CCN(C2CN(Cc3nc(C)no3)CC2C)CC1 (stereo not given),-17,2.24
Cc1ccc(NC[C@H]2CCN(Cc3ncc(C(C)(C)C)o3)C2)nc1,-8,1.11
CC(C)c1cc(CN2CC[C@](C)(O)[C@@H](O)C2)on1,-4,0.84
COc1ccc(C(=O)C[n+]2cc(-c3cccc(Br)c3)n(C)c2N)cc1,3,-0.43
C[C@@H](NC(=O)NCC1CCN(c2cnn(C)c(=O)c2)CC1)c1ccc(F)cc1,1,-0.12
CCCS(=O)(=O)N(C)CCn1ccnc1,-11,2.12
Cc1cc(C(=O)N2CCC[C@H](N(CCN3CCOCC3)S(C)(=O)=O)C2)ccn1,-12,1.59
O=C(CC1CCOCC1)NCc1ccccn1,39,-5.66
CN1CCC(N(C)C(=O)C23CCC(C)(C(=O)C2=O)C3(C)C)CC1 (stereo not given),12,-1.45
CCCCc1nc(CN2CCC[C@H](OC)C2)c[nH]1,-13,1.84

Compound,% Inhibition [%],Z score
O=C(CC1CCN(Cn2cnc3ccccc32)CC1)N1CCCC1,-42,4.98
Cn1cc([C@@H]2CS(=O)(=O)CCCN2Cc2ccccc2F)cn1,8,-0.91
CCn1cc(CN2CCC(C(=O)NCc3ccc(N(C)C)cc3)CC2)c2cc(OC)ccc21,7,-0.91
CC1(C)C[C@@H](NC(=O)c2ccc(OCc3ccccc3)nc2)CCO1,-7,0.96
c1cnn2c(-c3ccc4c(c3)OCCO4)cnc2c1,5,-0.48
Cc1cc(C(=O)N[C@H]2CCN(Cc3ccnc4ccccc34)C[C@@H]2O)no1,-2,0.34
CCc1nnc(N2CC[C@@]3(CCCN(C4CCCCC4)C3=O)C2)s1,-20,2.13
CCc1n[nH]c(C(=O)NC(C)(C)c2nccs2)c1Br,-15,1.58
Cc1cnc(C)c(N2CCC(Oc3ccc(C#N)cc3)CC2)n1,4,-0.41
COc1ccc2c(c1)C[C@@H](N1CCC(CCC(=O)N3CCOCC3)CC1)CC2,-13,1.72
C[C@H]1CCCN(C(=O)c2cn(-c3cc(-c4nc(C(C)(C)C)no4)ccn3)cn2)C1,-15,2.42
CN(CC1(C)COC1)c1ccnc(C(=O)NCCO)c1,3,-0.36
CN1CCN(c2nc3c(c(N(C)C)n2)CN(S(=O)(=O)c2ccccc2)CC3)CC1,-2,0.15
COc1ccc(CC[C@H](C)N2CCn3nc(C(=O)O)cc3C2)cc1,-10,1.82
COc1ccc(N/N=C(/C(C)=O)N2CCCc3ccccc32)cc1,29,-3.32
O=C(Nc1nnc(C2CC2)s1)c1ccc2c(c1)OCO2,-5,0.7
O=C(NC[C@H]1CCC[C@@H](CO)C1)c1c[nH]c(C(F)(F)F)c1,-3,0.5
COc1ccc(-c2noc(-c3ncn4c3CO[C@H](c3ccc(F)cc3)C4)n2)cc1OC,-10,0.88
CC(=O)N1CCCC[C@H]1c1noc(COc2ccc(C)cc2)n1,20,-2.69
O=C(Cn1cncn1)N1C[C@H]2CC=CC[C@H]2C1,-8,1.57
Cc1ccc(NC(=O)N2CCCCCCNC(=O)[C@@H]3CCCC[C@@H]32)cc1C,0,0
O=C(CCc1ccccn1)N[C@@H]1COCC[C@@H]1Oc1ccc(F)cc1,7,-0.78

Compound,% Inhibition [%],Z score
O=C(N[C@@H]1CN(c2ncccn2)C[C@H]1CO)c1cccc2[nH]ccc12,-9,1.24
O=C(Nc1ccc(-c2ccccc2)cn1)[C@H]1CCOC1,-4,0.68
O=C(Nc1ccc(Cl)cn1)c1ccccn1,1,-0.08
COCc1ncc(C)n1CC1CCN(C(=O)CCc2ccc(OC)cc2)CC1,0,-0.03
C[C@@H](C1CC1)N(C1CC1)S(=O)(=O)c1ccc(F)cc1F,84,-10.78
O=C(NCCC(c1ccccc1)c1ccccc1)c1cc(-c2ccccc2Cl)nn1-c1ccc(Cl)c(Cl)c1,-1,0.11
COc1ccc(-c2ncc(C(=O)NC[C@H]3CCCO3)c(Oc3ccc(Cl)cc3)n2)cc1,-3,0.47
CCOC(=O)[C@H]1CCCN(Cc2nnsc2Cl)C1,-13,1.14
O=C(NC1CCCCCC1)c1n[nH]c2c1COc1ccccc1-2,-4,0.71
Cc1ccccc1CN1CCCN(C(=O)c2n[nH]c3ccccc23)CC1,-11,1.38
CCNC(=O)c1nnn(-c2ccc(OCC)cc2)c1-c1cccnc1,-10,0.91
Cc1oncc1CN1CCC[C@H]1C(F)(F)F,5,-0.71
CCCS(=O)(=O)CC(=O)N1CCCC(C)C1CN (stereo not given),6,-0.74
CC1(C)CCCN1C(=O)NCCCC(F)(F)F,-15,1.48
CCc1ncnc(O[C@H]2CCN(C(=O)NCCc3ccc(OC)cc3)C2)c1F,0,-0.03
CC1CN(Cc2ncc(C(C)(C)C)s2)CC[S+]([O-])C1 (stereo not given),-8,1.21
Cc1oc(-c2ccccc2NS(C)(=O)=O)nc1CN(C)Cc1ccc(N2CCCC2)cc1,1,-0.14
COC(=O)NCCNC(=O)c1ncccc1NCC1CCC1,-30,3.53
CC(NC(=O)N1CCC(n2cc(Cl)cn2)C1)C1CCCN(C2CCC2)C1 (stereo not given),-1,0.18
